# Source: the RNAGym collection of RNA variant scans (doi:10.1073/pnas.2313332121)
# This sample is rich in variants without activity.
# B1: TPR 5TU (parent)
# chain: GGAUCUUCUCGAUCUAACAAAAAAGACAAAUCUGCCACAAAGCUUGAGAGCAUCUUCGGAUGCAGAGGCGGCAGCCUUCGGUGGCGCGAUAGCGCCAACGUUCUCAACUAUGACACGCAAAACGCGUGCUCCGUUGAAUGGAGUUUAUCAUG
# Variants of: B1
# Assay: polymerase ribozyme fitness, log enrichment relative to wild type (log ratio); higher = more active; in vitro selection for triplet polymerase activity
# Summary of the method: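 Each subunit of a heterodimeric triplet polymerase ribozyme was represented by a PCR-built, transcribed mutant library that underwent triplicate single-round in vitro selection with frozen incubation at −7 °C. Extended constructs were recovered by gel excision, streptavidin-bead capture and RT-PCR, and Illumina sequencing of input and output libraries kept genotypes with ≥10 input reads and ≥1 read per output. Fitness is the logarithm of genotype enrichment relative to wild-type enrichment, from inverse-variance-weighted replicate averages, with a logarithm base of 2.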
row,Variant,polymerase ribozyme fitness (log ratio)
1,A19C G70A A98U U111C,≤ -4.2
2,A19U A24U A28C U55C G83A G84A,≤ -4.2
3,A19C A40U G94A A110U,≤ -4.2
4,C18U A30U C32A C63U G83U C93A G143A,≤ -4.2
5,A19G A30C G74A U78A C87A G136A,≤ -4.2
6,A19G A20G A24C C36U U55G G117C U135A A142C,≤ -4.2
7,A19G G34U C38U A60G C87G C93A,≤ -4.2
8,A19G C54G G70A A73G G92A A106G C116G A137G,≤ -4.2
9,A19U A23G C38U A60G C96A C103G G143A,≤ -4.2
10,C18G G25U A41C G94U C99U C125A,≤ -4.2
11,A19C C38A A49U G62A C76A G83U A98U,≤ -4.2
12,A19G A49C U55A A91U C105U C132G,≤ -4.2
13,A19U A23G U45A C54U C72G,≤ -4.2
14,A19G C43A C51U C57U G84C U102G U139A A142U,≤ -4.2
15,C18G C32G U44G G58C C76A C93A G141C,≤ -4.2
16,A19C C27A U56A G58C G84C C108G U151G,≤ -4.2
17,A19C A23C G42U G46A G88A A150U,≤ -4.2
18,C18G A40U U53A G59A A97U U135G U144A,≤ -4.2
19,A19C U55G C96A C108G C116G A119C,≤ -4.2
20,C18G G42A G84C A97U A122U A138U,≤ -4.2
21,C18U A30G U44A G68U G86U C95G U101C C149U,≤ -4.2

row,Variant,polymerase ribozyme fitness (log ratio)
1,A19G A24C A28C A39U A40G A113G,≤ -4.2
2,A19G C43U A66G C75G C95A,≤ -4.2
3,A19U A20G U45G G46U A49C U90G C96G C132U,≤ -4.2
4,A19C G86U A137C G143C,≤ -4.2
5,A19G A29C A30C U82G,≤ -4.2
6,A19C A91U C95A,≤ -4.2
7,A19U A22U C35U C75U C93G U146G,≤ -4.2
8,A19C C27U C54U G74C C87U U146C,≤ -4.2
9,A19G U53C A73U A91C,≤ -4.2
10,A19C C38U U56G U61A U146A,≤ -4.2
11,C18U G25C A26C C32G G50U G58C C75U A91G C114A,≤ -4.2
12,A19C G68A C79A C85G A91U G94C A97U G117A G136U A142U,≤ -4.2
13,A19G U53A A91G U102A,≤ -4.2
14,A19C A30U C36A G48A U53G G86C G143C,≤ -4.2
15,C18U A20U C36U C54U G62A G84A C85U U144C,≤ -4.2
16,A19G U33C C43U G48C G58A U78G C79U U134G,≤ -4.2
17,A19C A47C C54A U56A C87A G100C G136A,≤ -4.2
18,A19C G86A,-0.455
19,C18G U31C G42U U56A G71U C95G,≤ -4.2
20,A19U A23U U90G C105A,≤ -4.2
21,A19G C76U C85A U151G,≤ -4.2

row,Variant,polymerase ribozyme fitness (log ratio)
1,C18G C27U G34A G42U A60G U104C A121U U145G,≤ -4.2
2,A19C C38U A39C U55G U135G,≤ -4.2
3,C18U A49C C72G C93U A107G,≤ -4.2
4,C18U C72U C76G U135G,≤ -4.2
5,A19C G68A C108G U111A A120U U135G,≤ -4.2
6,C18U C27G A30U C75U C96A C105A A122U U134A,≤ -4.2
7,C18U U31G G67C G86U U109C,≤ -4.2
8,A19C C36U C54G U55C C95G,≤ -4.2
9,A19C A29U U53G C85G C114G,≤ -4.2
10,A19G C36A C87G C108A C118U,≤ -4.2
11,A19G U33C C85G A97C,≤ -4.2
12,C18G U31C C69G A91G,≤ -4.2
13,C18G U45A G50C U53G C57U G86U A97G A110U,≤ -4.2
14,A19C A30G C87U G128C G136U,≤ -4.2
15,A19C C54A C123A G128A U144A,≤ -4.2
16,C18U C36U G42A C72A C85A U102G C103G A106U,≤ -4.2
17,C18G U31G C32U U77G G81C G152A,≤ -4.2
18,C18G G48A C75U C85G A113C,≤ -4.2
19,C18U C35U A39C G58A A137U,≤ -4.2
20,A19C U31A G34A C69U G71A G81A G84C C87A A97U G124C,≤ -4.2
21,C18U A52G G83C U146G,-2.39

row,Variant,polymerase ribozyme fitness (log ratio)
1,A19C U44A C79A A97U C149U,≤ -4.2
2,A19G A37C U55C C125U G141C U146G,≤ -4.2
3,A19G A89C U134G,-3.68
4,A19C G46A C72U G83U G92C U146A,≤ -4.2
5,A19G C87A C116A G143C U145G G152U,≤ -4.2
6,C18U A37C C105G A106G C108U A115G,≤ -4.2
7,A19U A21U A41C C99U U111A G133C,≤ -4.2
8,C18U A52C G81U C85U G86U A113U,≤ -4.2
9,C18G C32G U55A A60U G83C A137C U144C,≤ -4.2
10,A19G C27G A29G A41C G48C A49G U53A C72G C87A,≤ -4.2
11,A19C C79U A89U C108G A119U U135A G141U A147U A150G,≤ -4.2
12,A19C U45C C87G A110G C116A,≤ -4.2
13,C18U A30U U55G C69U U78C G88C U134C G136U,≤ -4.2
14,C18G C57G G80U C87A U127C G128C,≤ -4.2
15,C18U A20C G34U C76A C79A G88A,≤ -4.2
16,A19G G25C G50C A52G G83U G117U G143A,≤ -4.2
17,A19G U33G,≤ -4.2
18,C18U A24U C27G U31C C36G,≤ -4.2
19,C18G U101C A107G,≤ -4.2
20,A19U A21U C76A C87U G152C,≤ -4.2
